# Experimental data from PubChem BioAssay AID743279 (National Center for Advancing Translational Sciences (NCATS), 2014).
# Among all 360,000 compounds or so, about 17,000 (4.7%) were called active. The shares of active, inactive and inconclusive entries below differ from those in the screen. Cut-off read from the data, not from the text of the source: active = activity change below about -50%; inconclusive = mostly about -30% to -49%; inactive = weaker than that.
# Assay: qHTS for Inhibitors of Inflammasome Signaling: IL-1-beta AlphaLISA Primary Screen
# Conditions: THP-1 LPS/ATP IL-1B secretion, 16 h; at 57.5 µM, active compounds read low
# Method in brief: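 Secreted IL-1B measured by AlphaLISA bead assay after 16 h compound exposure of THP-1 cells; compounds (final up to 57.5 uM) added 1 h before LPS (250 ng/mL) and ATP (1.25 mM) stimulation; lower signal means less secretion.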
# % is set by controls: 0 for no effect and ±100 for the full control effect.
row,SMILES,activity change
1,Cn1c(CO)cnc1SCC(=O)c1ccc(Br)cc1,inconclusive: -48.4%
2,Cc1cc2c3c(c1C)C(=O)C(=O)N3C(C)(C)CC2C (configuration not stated),inactive: 34.2%
3,CC(C(=O)Nc1ccccc1)c1ccc(-c2ccccc2)c(F)c1 (configuration not stated),inconclusive: -30.4%
4,Clc1nc(-c2ccccn2)nc2scc(-c3ccccc3)c12,active: -60%
5,COc1ccc(C(=O)C2CCCN(C(=O)c3c4c(nn3C)CCCC4)C2)cc1F (configuration not stated),inactive: 0%
6,COc1ccc(NC(=O)c2cccnc2Nc2ccccc2)cc1,inconclusive: -42.3%
7,S=c1sscc1-c1ccccc1,inconclusive: -30.1%
8,COc1cccc(Oc2nc(N)ncc2[N+](=O)[O-])c1,active: -73.1%
9,CC(=O)OCCc1[nH]c2ccccc2c1C,inactive: 14.8%
10,Cc1cc(C)c(CN2CCN(C(=O)Cn3cnc4c(NCc5ccccc5)ncnc43)CC2)c(C)c1,inconclusive: -34.4%
11,O=C(CCNC(=O)c1ccc(Br)cc1)NC1CCCCCC1,inactive: 1.66%
12,CC(=O)Oc1ccc2ccc3ccc(C(C)=O)cc3c2c1,inconclusive: -39.3%
13,CCN1CCN(Cc2nc3c(c(=O)n(C)c(=O)n3C)n2CCc2ccccc2)CC1,inconclusive: -31.8%
14,Cc1cc(NC(=O)CCC(=O)N(Cc2ccco2)C2(C(=O)NC3CCCC3)CCC(C)CC2)no1 (configuration not stated),inconclusive: -30.7%
15,COc1cc(O)c(C(CCN2CCN(c3ccccc3)CC2)c2ccc3c(c2)OCO3)c(OC)c1 (configuration not stated),inconclusive: -43.8%
16,CCCCN(C)C(=O)C1CCN(Cc2cccc(OCc3ccccc3)c2)CC1,inconclusive: -48.9%
17,O=C(c1ccccc1)N1CCN(CCc2ccccc2)CC1,inconclusive: -30.3%
18,O=C(NCC1CCN(Cc2ccc(F)cc2)CC1)C1CCCN(c2ncnc3c2nc2n3CCCCC2)C1 (configuration not stated),inconclusive: -32.9%
19,Cc1cccc(N2CCN(C(=O)c3cccc(N4CCCC4=O)c3)CC2)c1C,inconclusive: -30.2%

row,SMILES,activity change
1,O=C(CSc1nc2ccccc2c(=O)[nH]1)c1ccc(O)cc1O,inactive: 28.2%
2,Cc1ccc(-c2nc3ccccc3[nH]2)cc1NC(=O)/C=C/c1ccco1,inconclusive: -40.4%
3,COc1cc2[nH]c(C(=O)NCCc3ccccc3)cc2c(OC)c1OC,inconclusive: -47.5%
4,COc1ccc(-n2c(SCC(=O)NCC3CCCO3)nc3c([nH]c4ccccc43)c2=O)cc1OC (configuration not stated),inactive: 10.9%
5,CC(C)Oc1ccccc1OCCCOc1cccc2cccnc12,inconclusive: -46.6%
6,c1ccc(CNCCC(Cc2ccccc2)c2ccco2)cc1 (configuration not stated),active: -79.7%
7,CCc1ccc(NC(=O)CC2C(=O)NCCN2C(=S)Nc2ccccc2)cc1 (configuration not stated),inconclusive: -33.4%
8,COc1cccc(/C=C/c2ccc3cccc(O)c3n2)c1,inconclusive: -40.4%
9,COc1ccc(NC(=O)c2cc3cc(OC)ccc3oc2=N)cc1,inconclusive: -36.1%
10,CCOC(=O)C1CCN(c2nc(C)nc3c2oc2ccccc23)CC1,inactive: 4.2%
11,CN(C(=O)N1CCN(S(=O)(=O)c2ccccc2)CC1)c1ccccc1,inconclusive: -35.6%
12,CCN(C(=O)COC(=O)c1cc(-c2ccc(C)o2)nc2ccccc12)C1CCS(=O)(=O)C1 (configuration not stated),inconclusive: -39.7%
13,Cc1cccc2c3nc4ccccc4nc3n(CCCN3C(=O)c4ccccc4C3=O)c12,inconclusive: -31.1%
14,Cc1cccc(C)c1NC(=O)CN(C)CCc1ccccc1,inactive: 28.5%
15,CCCc1nc2ccc(NC(C)=O)cc2c(=O)n1Cc1ccc(Cl)cc1,inconclusive: -33.7%
16,Cc1ccc(-n2c(C)c3c(C)nnc(C)c3c2C)cc1C,inconclusive: -33.8%
17,CC(C)c1ccccc1-n1c(SCC(=O)N2CCc3ccccc3C2)nc2ccccc2c1=O,inconclusive: -41.7%
18,Cc1ccc(/C=C/C(=O)c2ccc(N3CCOCC3)cc2)s1,inconclusive: -45.4%
19,CN(C)S(=O)(=O)c1ccc(C(=O)NCC(=O)N/N=C/c2ccco2)cc1,inactive: -19.1%

row,SMILES,activity change
1,Clc1ccc2[nH]c3c(NCCN4CCOCC4)ncnc3c2c1,inconclusive: -47.7%
2,Cc1cc(N/C(=N/S(=O)(=O)c2cc(F)ccc2F)c2ccccc2)n(-c2ccccc2)n1,inconclusive: -41.7%
3,Cc1cc(C)nc(/N=C(\N)Nc2ccc3c(c2)OCCO3)n1,active: -77.7%
4,CCCCOC(=O)C(C#N)c1nc2ccccc2nc1N1CCOCC1 (configuration not stated),inconclusive: -36.6%
5,COc1ccc2oc(C(=O)OCC(=O)NCc3ccco3)c(C)c2c1,inactive: 20.4%
6,O=C(NC1CCCC1)C(c1ccncc1)N(Cc1ccccc1)C(=O)c1ccc(-c2ccccc2)[nH]1 (configuration not stated),active: -79.2%
7,NC(=O)c1ccccc1OCCOc1ccc(Br)cc1,active: -59.2%
8,O=C(NN=C1CCCCC1)c1ccccc1-n1cccc1,inactive: 27.1%
9,N#C/C(=C(/O)Cc1ccccc1)P(=O)(c1ccccc1)c1ccccc1,inactive: 8.48%
10,CCOc1ccc(NC(=O)CN2C(=O)COc3ccc(S(=O)(=O)N4CCCCC4)cc32)cc1,inconclusive: -48.9%
11,CCOc1ccccc1N1CCN(C(=O)CCCN2C(=O)c3cccc4cccc(c34)C2=O)CC1,inactive: -15.6%
12,CC(=O)Nc1sc(-c2ccccc2)nc1-c1ccccc1,inconclusive: -39.5%
13,CC(C)c1ccc(-n2c(-c3ccccc3)c[n+]3c2CCc2ccccc2-3)cc1,active: -114%
14,CC(=O)Nc1cccc(-c2nc3ccc(NC(C)=O)cc3s2)c1,inconclusive: -35.8%
15,CS(=O)(=O)c1ccc(C(=O)Nc2nc(-c3ccco3)c(-c3ccco3)s2)cc1,inconclusive: -36.9%
16,CCCCCN(C(=O)CCC(=O)OCc1cc(C)ccc1C)c1c(N)n(CCCC)c(=O)[nH]c1=O,active: -63.4%
17,CC1(C)CC(=O)C=C(c2ccc(-c3cnn(Cc4ccccc4)c3)cc2)C1=O,inconclusive: -30.7%
18,COc1cc2ccccc2cc1C(=O)N(CCN(C)C)c1nc2c(F)cc(F)cc2s1,inconclusive: -33.1%
19,O=C(NCc1ccco1)C1CCN(C(=O)c2cc3sccc3n2Cc2ccc(F)cc2)CC1,inconclusive: -46.6%
